Measured values taken from PubChem BioAssay AID624173 (National Center for Advancing Translational Sciences (NCATS), 2012).
The whole screen tested about 410,000 compounds, of which about 490 (0.12%) were called active. Inconclusive means that the source gave no clear call. Such entries were picked first, then a sample of the others. Calls follow the shape of the dose curve; as a rule, active = well fitted inhibition curve with a large enough effect; inconclusive = small, poorly fitted or top-dose-only effect; inactive = flat fitted curve, though single readings scatter. Potencies beside an inconclusive call are fits to weak or partial responses and may not hold up.

Target: pyruvate kinase (Trypanosoma brucei) (UniProt Q57TT1)
Experiment: qHTS of Trypanosoma Brucei Inhibitors; also: nearly all actives have a fitted effect of over 50% in size
Conditions: TbPYK enzyme, Kinase-Glo Plus ATP luminescence, 45 min; series mostly up to 76.8 µM; activity, negative = inhibition: at the top concentration
Source text: Members of the Trypanosomatidae family of parasitic protozoans cause a spectrum of diseases throughout the tropical and subtropical world. Sleeping sickness, caused by two subspecies of Trypanosoma brucei, is endemic to areas of sub-Saharan Africa, while Chagas' disease, a manifestation of Trypanosoma cruzi infection, is prevalent throughout Central and South America. In addition, many species of Leishmania are responsible for a range of cutaneous and visceral diseases, causing ulcers, destructive lesions and kalaazar, a lethal infection of the viscera. These diseases cause severe public health and economic burdens on populations that are often already caught in a tragic cycle of poverty, poor nutrition and disease. Collectively, parasites of the trypanosomatid family infect 30 million people worldwide (~500 million live in endemic areas), and account for ~130K deaths annually. Existing treatments have developed little in the past 50 years, and suffer from toxicity, poor efficacy and resistance; the goal of this project is to develop lead drugs that will be suitable for entry into pre-clinical trials.
Glycolysis in axenically cultured T. cruzi, representing the intracellular pathogenic stage, is also essential for these parasites. {Engel, 1987} This project aims to discover and optimize selective inhibitors of the glycolytic enzyme pyruvate kinase (PYK) from Trypanosoma brucei, the parasite that causes sleeping sickness. […] Trypanosomatid PYKs show significant differences from their human counterparts including only 47-50% sequence identity and different allosteric and activation properties.{Callens, 1992} To this end, a qHTS was done against the MLSMR to discover inhibitors.
NIH Molecular Libraries Probe Production Network [MLPCN]
NIH Chemical Genomics Center [NCGC]
PI Name: Malcolm Walkinshaw, University of Edinburgh
2 uL of TbPYK/substrate buffer (columns 1-3, 5-48) are dispensed into Greiner white solid bottom 1536-well assay plates; column 4 receives only TEA buffer as 0x TbPYK controls. Compounds are then transferred via Kalypsys pin tool equipped with 1536-pin array (10 nL slotted pins, V&P Scientific, San Diego, CA). Following addition of compound, 2 uL of ADP (130 uM final concentration, all columns) is added to initiate the reaction. The plates are then incubated at room temperature for 45 minutes. Kinase-Glo Plus reagent is added (3 uL) and plates incubated for 10 minutes, before being transferred to a ViewLux high-throughput CCD imager (PerkinElmer) wherein single end-point measurements of luminescence are acquired using a clear filter. All reagents are diluted in an assay buffer consisting of 50 mM TEA (pH 7.2), 100 mM KCl, 10 mM MgCl2, 0.05% BSA and 0.01% Tween-20.
All screening operations will be performed on a fully integrated robotic system (Kalypsys, San Diego, CA) containing one RX-130 and two RX-90 anthropomorphic robotic arms (Staeubli, Duncan, SC). Library plates will be screened starting from the lowest and proceeding to the highest concentration. Vehicle-only plates, with DMSO being pin-transferred to columns 5-48, will be inserted uniformly at the beginning and the end of each library in order to monitor and record any shifts in the background, which can be affected by reagent dispensers or loss in enzyme activity over time. Screening data will be corrected, normalized, and concentration-effect relationships will be derived by using publicly-available curve fitting algorithms developed in-house (http://ncgc.nih.gov/pub/openhts).
% is scaled to controls: 0 for no effect and ±100 for the full control effect; potency is read from the fitted curve at half-maximal effect; tags tell the direction and shape of the fitted curve.

Structure (SMILES)	Potency	activity, negative = inhibition
COc1ccc(-n2c(SCc3ccc(C#N)cc3)nnc2-c2ccccn2)cc1	inconclusive: 39.8 µM [inhibitor, single point]	
CCOC(=O)CCCSc1nnc(CCCCCN2C(=O)c3cccc4cccc(c34)C2=O)o1		inactive: -5.44%
O=C(NCc1ccccc1Cl)C(=O)NCC1OCCN1S(=O)(=O)c1ccc(F)cc1 (centres undefined)	inconclusive: 35.5 µM [inhibitor, partial curve]	
Cc1cc(Cc2c(O)[nH]c(=S)[nH]c2=O)ccc1OC(C)C	inconclusive: 17.8 µM [inhibitor, partial curve, poor fit]	
Nc1ncnc2c1ncn2[C@@H]1O[C@H](COP(=O)(O)O)[C@@H](O)[C@H]1O	inconclusive: 35.5 µM [inhibitor, single point]	
Cc1ccc(C)c(N(C(=O)CCC(=O)Nc2cc(C)on2)C(C(=O)NC2CCCC2)c2ccco2)c1 (centres undefined)	inconclusive: 50.1 µM [inhibitor, single point]	
Cc1cc2[nH]c(=S)[nH]c2cc1C	inconclusive: 15.8 µM [inhibitor, partial curve]	
N#C/C(=C/c1ccc(N2CCCCCC2)o1)c1ccc(Cl)cc1	inconclusive: 25.1 µM [inhibitor, partial curve]	
NNC(=O)CNC(c1ccccc1)c1cc(Br)ccc1NC(=O)c1ccccc1Br (centres undefined)		inactive: -7.21%
Cn1c(=S)c2[nH]c(SCCC(C)(C)C)nc2n(C)c1=O	inconclusive: 11.2 µM [inhibitor, partial curve, poor fit]	
C=CCOc1ccc(CNn2c(C)n[nH]c2=S)cc1OC	inconclusive: 17.8 µM [inhibitor, partial curve, poor fit]	
Cc1ccc(-c2cc(N)n(-c3ccccc3)n2)cc1		inactive: 0.151%
CC(=O)Nc1ccc(OCC(O)Cn2cnc3ccccc32)cc1 (centres undefined)		inactive: 3.77%
Cc1ccccc1-c1nc(-c2ccccn2)no1	inconclusive: 20 µM [inhibitor, partial curve, poor fit]	
COc1cc(-c2n[nH]c(=S)n2-c2ccc(Br)cc2)cc(OC)c1OC	inconclusive: 7.08 µM [inhibitor, partial curve]	
CCOc1ccc(CCNC(=O)CCCn2c(=O)c3cccn3c3cccnc32)cc1		inactive: 5.63%
CCOC(=O)CC(=O)CSc1nc2ccc(C)cc2cc1C#N	inconclusive: 25.1 µM [inhibitor, partial curve, poor fit]	
COc1cccc(Cn2c(=O)n(Cc3ccccc3)c(=O)c3c2c2cc(OC)ccc2n3C)c1		inactive: -1.71%
COc1ccc(C(=O)NC(C)c2nnc(SCC(=O)Nc3nc(C)cs3)n2C)cc1 (centres undefined)	inconclusive: 25.1 µM [inhibitor, partial curve, poor fit]	
CCN(CC)Cc1cc(O)c(CN(CC)CC)cc1O	active: 10 µM	
CC(C)CCNC(=O)C(c1ccc(O)cc1)N(C(=O)C1COc2ccccc2O1)c1cccc(O)c1 (centres undefined)		inactive: -0.566%
O=C(COc1ccc(Cl)cc1Cl)NC1CC1		inactive: 4.51%
COc1cccc(C(O)c2nc(-c3cnn(C)c3)cs2)c1 (centres undefined)		inactive: -0.85%

Structure (SMILES)	Potency	activity, negative = inhibition
CN(C(=O)c1ccoc1)c1ccc2ccccc2c1		inactive: -9.26%
C[C@H]1CN([C@@H](C)CO)C(=O)c2cccc(NC(=O)c3ccncc3)c2O[C@H]1CN(C)C(=O)Nc1ccccc1	inconclusive: 50.1 µM [inhibitor, single point]	
CC(C)(C)C1=CC(=O)C(=O)C(C(C)(C)C)=C1	active: 8.91 µM	
COc1ccc(OC)c(-c2c3c([nH]c(=S)c2C#N)CCCC3)c1	inconclusive: 1.78 µM [inhibitor, full curve, poor fit]	
CCOc1ccccc1CNC(=O)CCCN1C(=O)CCn2nc(-c3cccn3C)cc21		inactive: -2.59%
CCn1c(CCNC(=O)c2ccc(Cl)cc2Cl)n[nH]c1=S	inconclusive: 11.2 µM [inhibitor, full curve, poor fit]	
CCn1c(-c2ccc3[nH]c(C)c(C)c3c2)n[nH]c1=S	inconclusive: 11.2 µM [inhibitor, partial curve]	
CC(=O)NCc1ccc2[nH]c(C)cc2c1		inactive: -5.18%
Cn1c(=O)[nH]c(=O)c2c1nc1n2CC(O)CN1c1ccccc1 (centres undefined)		inactive: 2.18%
Cc1cccc2[nH]c3c(N4CCC5(CC4)OCCO5)ncnc3c12		inactive: 3.74%
CC(=O)c1cc(-c2ccccc2)n(CCC(=O)Nc2cc(C)cc(C)c2)c1C		inactive: -14.3% [at 15.4 µM]
CN(C)C(=O)Oc1ccc(-c2cn3cc(Cl)ccc3n2)cc1		inactive: -11.1%
Cn1c(=O)c2[nH]c(-c3ccc(S(=O)(=O)O)cc3)nc2n(C)c1=O	inconclusive: 50.1 µM [inhibitor, single point]	
Cc1ccc(Nc2n[nH]c(=S)s2)cc1C	inconclusive: 10 µM [inhibitor, partial curve]	
COc1ccc(C(=O)NC(=S)N2CCCCC2)cc1[N+](=O)[O-]	inconclusive: 20 µM [inhibitor, partial curve]	
S=c1[nH]nc(-c2cccnc2)n1/N=C/c1ccccc1	inconclusive: 5.62 µM [inhibitor, partial curve, poor fit]	
CC(C)(C)c1ccc(C(=O)NC(=S)N2CCCCCC2)cc1		inactive: 4.6%
O=C(CN1CCN(c2ccc(O)cc2)CC1)N1CCc2ccccc21	inconclusive: 31.6 µM [inhibitor, single point]	
COc1ccc2ccccc2c1C1CC(=O)N2CN(C)CSC2=C1C#N (centres undefined)	inconclusive: 3.55 µM [inhibitor, full curve, poor fit]	
O=C(CCN1CCc2ccccc2C(c2ccccc2)C1)c1ccc2c(c1)OCCO2 (centres undefined)	inconclusive: 28.2 µM [inhibitor, partial curve, poor fit]	
CCCCC(=O)Nc1nnc(SCC(=O)NC2CC2)s1	inconclusive: 7.08 µM [inhibitor, full curve]	
CCCOc1ccccc1C(=O)N(Cc1ccco1)C1CCS(=O)(=O)C1 (centres undefined)	inconclusive: 50.1 µM [inhibitor, single point]	
COc1ccc(-n2c(CNC(=O)COc3ccccc3)n[nH]c2=S)cc1	inconclusive: 14.1 µM [inhibitor, partial curve, poor fit]	

Structure (SMILES)	Potency	activity, negative = inhibition
COc1ccc(Br)cc1C1CC(=O)N2CN(C)CSC2=C1C#N (centres undefined)	inconclusive: 11.2 µM [inhibitor, partial curve, poor fit]	
COc1cccc(/C=N/N2C(=O)CSC2=S)c1O	inconclusive: 31.6 µM [inhibitor, partial curve]	
N#CCCn1cc(C(=O)Nc2ccc(C(=O)O)cc2)c(-c2cccs2)n1	inconclusive: 50.1 µM [inhibitor, single point]	
COC(=O)CNC(c1ccccc1)c1cc(Br)ccc1NC(=O)CCN1CCOCC1 (centres undefined)		inactive: -27%
CCN(CC)C(=O)CSC1=C(C#N)C(c2cccs2)C=C(C)N1 (centres undefined)	inconclusive: 22.4 µM [inhibitor, partial curve, poor fit]	
Cc1ccc(NC(=O)c2cc3c(=O)[nH]c4ccccc4c3n2C)cc1F		inactive: 1.14%
CC(=O)c1ccccc1-c1csc2ncnc(Sc3nnnn3C)c12		inactive: -10.4%
O=C1C=CC(=O)c2c(O)c(CO)c(CO)c(O)c21	inconclusive: 39.8 µM [inhibitor, partial curve, poor fit]	
O=[N+]([O-])c1cc2c(cc1/C=N/NS(=O)(=O)c1ccc(Br)cc1)OCO2	inconclusive: 39.8 µM [inhibitor, single point]	
S=c1[nH]nc(CCc2nc3ccccc3[nH]2)n1-c1ccccc1	inconclusive: 31.6 µM [inhibitor, partial curve]	
COc1ccc(NC(=O)c2cn(-c3ccccc3)nc2SC)cc1	inconclusive: 31.6 µM [inhibitor, partial curve, poor fit]	
COc1cc2nc(N(CCCN(C)C)C(=O)c3ccc(S(=O)(=O)N4CCc5ccccc54)cc3)sc2cc1OC	inconclusive: 28.2 µM [inhibitor, single point]	
O=C(N/N=C/c1cccn1-c1cccc(C(=O)O)c1)Nc1ccccc1		inactive: 6.07%
C/C(=N/NC(=O)c1ccc(C)s1)c1cccc(NC(=O)COc2ccc(Cl)cc2Cl)c1		inactive: 4.18%
Cc1cc(C(=O)N2CCN(c3ncccn3)CC2)sc1-c1ccccc1	inconclusive: 35.5 µM [inhibitor, partial curve, poor fit]	
O=C(O)CCc1ccc(-c2ccc(Cl)cc2)o1	inconclusive: 39.8 µM [inhibitor, partial curve, poor fit]	
CCOCCCNC(=O)c1cc2c(s1)-c1ccccc1SC2	inconclusive: 31.6 µM [inhibitor, partial curve, poor fit]	
Cc1ccc(CNC(=O)C2CCN(S(=O)(=O)c3cccs3)CC2)o1	inconclusive: 35.5 µM [inhibitor, partial curve, poor fit]	
CCCn1c(=S)[nH]c2ccc(C(F)(F)F)cc21	inconclusive: 3.55 µM [inhibitor, partial curve, poor fit]	
COc1cc(/C=C/C(=O)OCC(=O)NCCc2ccc(S(N)(=O)=O)cc2)ccc1OCC#N		inactive: 1.83%
CSc1nc(=S)c2[nH]c(=S)[nH]c2[nH]1	inconclusive: 6.31 µM [inhibitor, partial curve, poor fit]	
O=C(NN1C(=O)/C(=C/c2ccc(O)c(O)c2)SC1=S)c1ccccc1	inconclusive: 25.1 µM [inhibitor, partial curve, poor fit]	
N#C/C(=C(/O)CSc1nnc(Cc2cccs2)n1C1CCCCC1)c1nc2ccccc2[nH]1	inconclusive: 25.1 µM [inhibitor, partial curve]	
